The text below walks through data of publication PMC10862077 (Frontiers in Immunology, 2024).

For test [1], the target named is T1, dog albumin (Canis lupus familiaris, UniProt P49822, biotin in the BLI with FcRn, else none). The note with it: both partners purified.
Test [2] deals with T1, dog albumin. Kind of test: ELISA; […], pH 7.4); room temperature; […]. The note with it: both partners purified.

B1: A6L (VHH)
VHH: QVQLQESGGRLVQAEDSLRLSCAASGRTFVSYDMGWFRQAPGKEREFVAAINWRGYTTDYVDSVKGRFFISRDIAKSTVYLQMNNLKPEDTAVYYCAARQMSGSSRYSPPGRVGYDFWGQGTQVTVSS
notes: also called sdAb A6
Regarding B1, in the test with dog albumin [1], the Kd (commonly the concentration at which binding is half-saturated) worked out at 3.2 nM and the koff (usually the rate constant with which the complex falls apart) stood at 0.00226 s⁻¹.

B2: A12L (VHH)
VHH: QVQLQESGGGLVQAGGSLRLSCAASGRTFSYYPMAWFRQAPGQEREFVAAIIGADTTYYADSLKGRFTISRDNAKNMVYLQMNSLKPEDTAVYYCAARNTYWSDVYYREGQYTNWGQGTQVTVSS
notes: also called sdAb A12
In the test with dog albumin [1], B2 had a Kd of 271 nM and a koff of 0.0125 s⁻¹.

B3: A7L (VHH)
VHH: QVQLQQSGGGLVQAGDSLRLSCAASGRAFNYYTMGWFRQAPGKEREFVAKIYWDGGSTIYADSVKGRFTISIDNAKNTVYLQMNSLKPEDTAVYYCAADPSFYPFRPKYWGQGTQVTVSS
notes: also called sdAb A7
Take B3: the binding result with dog albumin [2] is on record as “no binding (tested: 1 µg/ml sdAb)”.

B4: A16L (VHH)
VHH: QVQLQESGGGVVQAGGSLRLSCAASGRTVSSSAMGWFRLAPGKEREFVVGISRSGGSIFYADSVKGRFTISRKNAKNTVDLQMNSLKPEDTAVYYCAAGYRPGYGDYGRVFYREDEYDDWGQGTQVTVSS
notes: also called sdAb A16
In the test with dog albumin [1], B4 registered a Kd of 13 nM and a koff of 0.0051 s⁻¹.

B5: A2L (VHH)
VHH: QVQLQQSGGGLVQAGGSLRLSCAASGRFFSRQVMGWFRQAPGKDREFVGVISWDNGVTFYSDSVKGRFTMSREIAKKTVHLQMNSLKPEDTAVYYCAAGNALHSRYYSPSKYDYWGPGTQVTVSS
notes: also called sdAb A2
With B5, in the test with dog albumin [2], the binding result is “binds”.
